Out of some 410,000 compounds screened, about 260 (0.063%) were called active. Inconclusive means that the source gave no clear call. Such entries were picked first, then a sample of the others. Calls come from the whole dose curve; as a rule, active = well fitted activation curve with a large enough effect; inconclusive = small, poorly fitted or top-dose-only effect; inactive = no such curve, though single readings can be large or run the other way. Potencies of inconclusive entries are left out as doubtful fits.
Assay: qHTS for compounds that reverse cellular toxicity of Amyloid beta (A-beta) peptide in yeast: Primary Screen; note: nearly all actives have a fitted effect of over 55% in size
Conditions: yeast expressing A-beta42, growth rescue, OD600, 48 h; growth rescue: at 46.1 µM (top of the series), 0% DMSO, 100% iron-clioquinol control
How it was run: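 Yeast A-beta toxicity model in growth medium with pinned compounds, 48 h at 30 C; growth read as absorbance at 600 nm. Normalized to FeCl3/clioquinol equimolar mix (positive) and DMSO (negative).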
Potency is the fitted concentration of half-maximal effect; tags give direction and shape of the fitted curve.

| SMILES | growth rescue | Potency |
| --- | --- | --- |
| COc1cc(/C=N/N=C2/C(=O)Nc3ccccc32)cc(OC)c1O | inactive: -18.2% |  |
| O=C(O)c1cc2ccccc2n1-c1ccccc1 |  | inconclusive [activator, single point] |
| Cc1ccccc1-c1csc(C(O)(c2ccccc2)C(F)(F)F)n1 (configuration not stated) |  | inconclusive [activator, single point] |
| COc1ccc(CCNC(=O)CSc2ncc3c(n2)-c2cc(Cl)ccc2N(Cc2ccccc2)S3(=O)=O)cc1OC | inactive: -12% |  |
| O=C(/C=C/c1ccccc1)NC(=S)NNC(=O)c1ccco1 | inactive: -55.7% |  |
| CC(C)(C)C(=O)Cn1c(=O)n(CCCCCC(=O)NCc2ccc3c(c2)OCO3)c(=O)c2sccc21 | inactive: -12.8% |  |
| O=C(NCCC(F)(F)F)C1Cc2c(-c3ccccc3Oc3ccccc3)ccnc2O1 (configuration not stated) |  | inconclusive [activator, partial curve, poor fit] |
| CC(C)[C@@H]1Cc2[nH][nH]c(=O)c2[C@H](c2ccc(F)cc2)O1 | inactive: 10.6% |  |
| Cc1cccc(NC(=O)C2C3C=CC(C4CC34)C2C(=O)O)c1 (configuration not stated) | inactive: 17.9% |  |
| CC(O)(c1ccccc1)c1nc(-c2csc3ccccc23)cs1 (configuration not stated) |  | inconclusive [activator, single point] |
| S=C(NCCc1ccccc1)Nc1c(Cl)cccc1Cl |  | inconclusive [activator, single point] |
| CC(=O)c1ccc(NC2=NS(=O)(=O)c3ccccc32)cc1 | inactive: 7.72% |  |
| Cc1ccc(S(=O)(=O)NCCC(=O)OCC(=O)Nc2ccccc2Cl)cc1 |  | inconclusive [activator, partial curve, poor fit] |
| Cc1cc(C)c(Cn2c3ccccc3c3cnn(CC(=O)NCCc4ccccc4)c(=O)c32)c(C)c1 | inactive: -22.1% |  |
| Cc1cc(=O)n2c(C(=O)Nc3ccc(C)c(Cl)c3)c(C(=O)Nc3ccccc3)sc2n1 | inactive: -6.46% |  |
| COc1ccc2oc(=N)c(-c3nnc4n3CCCCC4)cc2c1 | inactive: 1.67% |  |
| CCCn1c(NC(=O)c2ccccc2Br)nc2ccccc21 | inactive: 4.65% |  |
| Cc1cccc(OCc2nnc(SCC(=O)Nc3ccc(C)c(Cl)c3)o2)c1 | inconclusive: -28.8% [activator] |  |
| Cc1cc(C)c(C)c(S(=O)(=O)N2CCC(C(=O)N3CCN(c4ccc(F)cc4)CC3)CC2)c1C | inactive: -2.85% |  |
| Cc1cccc(C)c1OCc1nnc(SCC(=O)NCc2ccccc2)o1 |  | inconclusive [activator, partial curve] |
| COc1ccc(OCCCC(=O)Nc2nc(-c3ccccn3)cs2)cc1 |  | inconclusive [activator, partial curve, poor fit] |
| CC1CCN(C(=S)NC(=O)c2ccc(C(C)(C)C)cc2)CC1 |  | inconclusive [activator, partial curve] |
| Cc1cccc(NCc2nc3ccccc3n2Cc2ccccc2)c1 |  | inconclusive [activator, single point] |
| O=C(CN1CCN(S(=O)(=O)c2cccs2)CC1)NCC1CCCCC1 | inactive: 11.3% |  |

| SMILES | growth rescue | Potency |
| --- | --- | --- |
| CCCCC(=O)Nc1nnc(-c2ccc(OC)cc2)s1 |  | inconclusive [activator, full curve, poor fit] |
| COc1cc(OC)cc(C(=O)OCC(=O)c2cc(C)n(CC3CCCO3)c2C)c1 (configuration not stated) | inactive: 4.55% |  |
| CCN(Cc1ccccc1)S(=O)(=O)c1ccc(F)c(C(=O)Nc2ccc(C(C)C)cc2)c1 | inactive: -7.65% |  |
| S=C(Nc1ccccc1)Nc1ccccc1-n1cccc1 |  | active: 12.6 µM |
| Cc1cc(C)c(S(=O)(=O)Nc2ccc(-c3ccc(N4CCCCC4)nn3)cc2)cc1C | inactive: -12.6% |  |
| Cc1ccc(CSc2nc3cccnc3n2Cc2nc(-c3ccccc3F)oc2C)cc1 |  | inconclusive [activator, single point] |
| C=C(c1ccc(O)cc1)c1ccc(O)cc1 |  | inconclusive [activator, single point] |
| CCN(CC(=O)NCc1ccc(F)cc1)C(=O)Cc1ccc(OC)cc1 | inactive: -9.56% |  |
| CCC(C(=O)OCC(=O)Nc1cc(Cl)cc(Cl)c1)c1ccccc1 (configuration not stated) |  | inconclusive [activator, single point] |
| COc1ccc(OC)c(/C=N/NC(=S)NCCc2ccccc2)c1 |  | inconclusive [activator, partial curve, poor fit] |
| N#C/C(=N\Nc1ccccc1F)C(=N)N1CCCCC1 |  | inconclusive [activator, partial curve, poor fit] |
| O=C1N/C(=N\N=C\c2ccccn2)SC1Cc1cccc(SC(F)F)c1 (configuration not stated) |  | inconclusive [activator, full curve, poor fit] |
| O=c1ccc(C(F)(F)F)cn1Cc1cc(=O)n2ccsc2n1 | inactive: 15.5% |  |
| CC1(c2cc([N+](=O)[O-])cc([N+](=O)[O-])c2)CC(C)(C)N(C(=O)c2ccccc2)c2ccccc21 (configuration not stated) | inactive: 41.3% |  |
| COc1ccc(-c2csc(Nc3ccccc3)n2)cc1 |  | inconclusive [activator, single point] |
| C=CCNC(=O)/C(C#N)=C/c1ccccc1Cl |  | inconclusive [activator, single point] |
| O=C(CSc1oc(-c2ccco2)nc1S(=O)(=O)c1ccccc1)NCC1CCCO1 (configuration not stated) | inactive: -3.08% [at 9.22 µM, 0% DMSO, 100% iron-clioquinol control] |  |
| Cc1[nH]n(C(N)=S)c(=O)c1N=Nc1ccc([N+](=O)[O-])cc1Cl |  | inconclusive [activator, partial curve, poor fit] |
| COC(=O)c1ccc(NC(=O)CCOc2ccccc2)cc1 |  | inconclusive [activator, partial curve] |
| CCOc1ccc(CN2C(=O)c3ccccc3Sc3ccc(C(=O)NC4CCC(C)CC4)cc32)cc1 (configuration not stated) | inactive: -19.5% |  |
| Cc1cc(S(=O)(=O)NCC2CCCO2)c(C)cc1Br (configuration not stated) |  | inconclusive [activator, single point] |
| CN(C)c1ccc(CNc2ncnc3sccc23)cc1 |  | inconclusive [activator, partial curve] |
| O=C(Cn1c(=O)oc2ccccc21)NCCc1ccccc1Cl |  | inconclusive [activator, partial curve, poor fit] |
| CC(C)c1ccc(NC(=O)c2cc(S(=O)(=O)NC3CCCCC3)ccc2F)cc1 |  | inconclusive [activator, single point] |

| SMILES | growth rescue | Potency |
| --- | --- | --- |
| COc1ccc(OCC(O)Cn2ccnc2C)cc1 (configuration not stated) | inactive: 3.62% |  |
| CC1(C)C[C@@H](O)CC2(C1)C[C@]1(C)CC(O)[C@H]2C(C)(C)C1 (some centres not stated) |  | inconclusive [activator, partial curve, poor fit] |
| COCCNC(=O)CCn1c(=O)[nH]c2cc(OC)c(OC)cc2c1=O | inactive: -7.59% |  |
| CCOC(=O)c1[nH]c2cc(OC)c(OC)cc2c1NC(=O)c1ccc2c(c1)OCO2 | inactive: 1.41% |  |
| COC(=O)c1cc(Br)c(=O)n(Cc2ccc3c(c2)OCO3)c1 |  | inconclusive [activator, partial curve, poor fit] |
| COc1cccc(/C=N/NC(=S)NC2CC3CCC2C3)c1OC (configuration not stated) |  | inconclusive [activator, full curve, poor fit] |
| COc1ccc(C(C)(O)c2nc(-c3cccs3)cs2)cc1 (configuration not stated) |  | inconclusive [activator, single point] |
| O=C(N1CCN(Cc2ccccc2)CC1)C12CC3CC(CC(C3)C1)C2 |  | inconclusive [activator, partial curve] |
| CCN1CCN(c2ccc(S(=O)(=O)N3CCCCC3)cc2NC(=O)CC(C)c2ccccc2)CC1 (configuration not stated) |  | inconclusive [activator, partial curve, poor fit] |
| OC(c1ccccc1)C(O)C(c1ccccc1)N1CCCCC1 (configuration not stated) |  | inconclusive [activator, single point] |
| Clc1cccc(CNc2ccn3nc(-c4cccs4)cc3n2)c1 |  | inconclusive [activator, partial curve, poor fit] |
| Cc1ccc(Cl)c(OC(=O)c2ccc(N3CCOCC3)c([N+](=O)[O-])c2)c1 |  | inconclusive [activator, partial curve] |
| O=C(CCS(=O)(=O)c1nc(-c2ccc3c(c2)OCO3)cc(C(F)(F)F)n1)Nc1ccccc1C(F)(F)F | inactive: -4.83% |  |
| CC1(C(=O)NS(=O)(=O)Cc2ccccc2)CCN1C(=O)c1ccc(C2CCCCC2)cc1 (configuration not stated) | inactive: -10.9% |  |
| Cc1ccc(NCc2ccc([N+](=O)[O-])s2)cc1 | inactive: 19.8% |  |
| CCC1CN(C(=O)N2CCC(C(=O)NCc3ccccc3F)CC2)c2ccccc2O1 (configuration not stated) |  | inconclusive [activator, single point] |
| CC(C)CN(C(=O)COC(=O)c1cccnc1Cl)c1c(N)n(Cc2ccccc2)c(=O)[nH]c1=O | inactive: 7.66% |  |
| CCOC(=O)N/N=C1\CCc2ccccc21 | inactive: -2.91% |  |
| C=C/C(C)=C/CC1C(=C)CCC2C(C)(C(=O)O)CCCC12C (configuration not stated) |  | inconclusive [activator, full curve, poor fit] |
| CO/N=C/c1ccc(Sc2ccccc2N)c([N+](=O)[O-])c1 |  | inconclusive [activator, partial curve, poor fit] |
| CSc1ccc(Cn2c(C)c(C(=O)NCc3ccc4c(c3)OCO4)sc2=O)cc1 |  | inconclusive [activator, single point] |
| CCCCNC(=O)C1CCCN(c2nnc(C)c3c(C)n(-c4ccc(Cl)cc4)nc23)C1 (configuration not stated) | inactive: -17.8% |  |
| O=C(NCc1ccccc1C(F)(F)F)C12CN(Cc3ccccc3)CC1C(c1ccc([N+](=O)[O-])cc1)=NO2 (configuration not stated) | inactive: 4.65% |  |
| CC(=O)C(C(c1ccccc1)c1c[nH]c2ccccc12)[N+](=O)[O-] (configuration not stated) |  | inconclusive [activator, partial curve] |
